Data reported in PMC4336329 (PLoS ONE, 2015).
Among all 310,000 compounds or so, about 14,000 (4.5%) showed an effect of 50% or more. Effects have a minus sign here. The list shows a part of the results.

Target: human ether-à-go-go-related gene (hERG) potassium channel (human, UniProt Q12809)
Assay: primary screen, population patch clamp on CHO cells stably expressing hERG
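Also: peak tail current of the secondary pulse compared with the same well before compound.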

Chain of human ether-à-go-go-related gene (hERG) potassium channel (Q12809 whole entry, looked up): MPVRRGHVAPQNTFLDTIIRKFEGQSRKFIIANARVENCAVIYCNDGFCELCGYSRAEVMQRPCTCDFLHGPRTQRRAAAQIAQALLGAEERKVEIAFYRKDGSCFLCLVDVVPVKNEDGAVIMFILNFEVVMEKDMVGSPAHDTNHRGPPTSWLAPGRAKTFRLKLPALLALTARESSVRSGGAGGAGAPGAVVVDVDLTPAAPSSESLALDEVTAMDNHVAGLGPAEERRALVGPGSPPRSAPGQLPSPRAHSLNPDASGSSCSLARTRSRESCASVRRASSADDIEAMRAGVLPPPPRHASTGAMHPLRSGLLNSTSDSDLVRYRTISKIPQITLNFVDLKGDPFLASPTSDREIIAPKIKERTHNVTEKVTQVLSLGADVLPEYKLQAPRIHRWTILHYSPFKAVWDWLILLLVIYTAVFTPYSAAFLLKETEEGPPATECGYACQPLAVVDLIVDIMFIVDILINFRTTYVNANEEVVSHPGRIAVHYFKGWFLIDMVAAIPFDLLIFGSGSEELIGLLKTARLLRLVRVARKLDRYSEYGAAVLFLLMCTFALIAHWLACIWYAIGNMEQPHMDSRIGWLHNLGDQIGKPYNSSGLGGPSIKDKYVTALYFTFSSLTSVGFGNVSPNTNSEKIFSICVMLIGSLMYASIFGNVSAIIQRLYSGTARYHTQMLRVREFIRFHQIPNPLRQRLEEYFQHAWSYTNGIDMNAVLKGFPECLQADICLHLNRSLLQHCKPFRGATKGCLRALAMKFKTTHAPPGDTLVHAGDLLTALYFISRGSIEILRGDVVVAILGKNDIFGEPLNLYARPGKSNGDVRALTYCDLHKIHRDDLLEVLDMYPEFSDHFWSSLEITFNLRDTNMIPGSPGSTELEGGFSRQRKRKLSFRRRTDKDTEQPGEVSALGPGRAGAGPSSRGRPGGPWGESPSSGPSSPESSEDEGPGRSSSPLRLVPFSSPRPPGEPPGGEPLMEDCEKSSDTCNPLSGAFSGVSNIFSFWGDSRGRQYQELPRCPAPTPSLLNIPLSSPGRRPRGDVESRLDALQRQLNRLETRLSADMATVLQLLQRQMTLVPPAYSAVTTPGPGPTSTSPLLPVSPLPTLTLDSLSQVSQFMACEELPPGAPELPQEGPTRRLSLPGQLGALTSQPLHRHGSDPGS

SMILES | hERG current change (%, negative = inhibition) at 10uM [%]
O=C(COC(=O)c1ccco1)NCCc1ccc(Cl)cc1 | -6.24
S=c1[nH]nc(Cn2cnc3ccccc32)n1-c1ccccc1Cl | 18.4
COc1ccc(C2CC2/C(C)=N/OC(=O)c2ccc(F)cc2)cc1 (stereo not drawn) | 0.458
COc1cc(C2c3c(-c4cc(C)cc(C)c4O)n[nH]c3C(=O)N2CCCO)cc(OC)c1OC (stereo not drawn) | -2.71
COc1ccc2cc(C(=O)C3CCCN(C(=O)c4cncs4)C3)ccc2c1 (stereo not drawn) | -22.8
COc1ccccc1CCNS(=O)(=O)CCNC(=O)c1ccc2c(c1)OCO2 | -3.02
O=C(/C=C/c1ccccc1)NCCCNC(=O)/C=C/c1ccccc1 | 1.71
O=C(O)c1ccc(OCC(F)(F)F)nc1 | 22.7
Cc1cc(C(=O)N/N=C/c2ccncc2)c(C)o1 | 13.9
CCOC(=O)C1=C(CS(=O)(=O)c2ccc(F)c(C)c2)NC(=O)NC1c1ccc(O)c(O)c1 (stereo not drawn) | 10.8
O=C(NNC(=O)c1ccccc1Br)c1ccc(Cl)cc1 | 5.81
Cc1cccc(CN2CCN(C(=O)CN(C)C(C)C(=O)Nc3ccc(C(N)=O)cc3)CC2)c1 (stereo not drawn) | 4.51
CC(=O)N1CCC(C(=O)Nc2nc(-c3ccccc3)ns2)CC1 | -9.29
COc1cc(NC(=O)Cn2cnc3sc(C)c(S(=O)(=O)N4CCN(C)CC4)c3c2=O)cc(OC)c1OC | 19
CCc1ccc(CNC(=O)c2nn(C)c3c2CS(=O)(=O)c2ccccc2-3)cc1 | -22.2
Cc1c(S(=O)(=O)N2CCN(C(c3ccccc3)c3ccccc3)CC2)c(=O)n(C)c(=O)n1C | -4.19
COc1ccc(OC)c(C2C(C(=O)c3cccs3)=C(O)C(=O)N2CCN2CCOCC2)c1 (stereo not drawn) | 10.9
COCCCN(Cc1cccs1)S(=O)(=O)c1c[nH]c(C(=O)OC)c1 | -8.01
COc1ccc(N2CCN(C(=O)c3ccccc3N(C)S(=O)(=O)c3ccc(C)cc3)CC2)cc1 | 2.94
CCN1/C(=C/C(=S)Nc2ccccc2)Sc2ccccc21 | 20.4
Cn1c(CNc2ccc(F)cc2)nnc1SCC(=O)NNC(=O)Cc1ccccc1 | 7.42

SMILES | hERG current change (%, negative = inhibition) at 10uM [%]
O=C(C(NS(=O)(=O)c1cccc2nsnc12)c1ccccc1)N1CCN(c2ccccc2)CC1 (stereo not drawn) | -71.4
CCOc1cc([N+](=O)[O-])cc2c1C(=O)Nc1ccccc1O2 | 14.9
COc1cc2[nH]c(=S)n(Cc3ccccc3)c(=O)c2cc1OC | 11.4
Cc1cccc(C(=O)NC(=S)Nc2ccc(S(=O)(=O)N3CCN(C)CC3)cc2)c1 | 1.59
Cc1onc(-c2ccccc2Cl)c1C(=O)NC1CCCCCC1 | 4.05
COc1ccc(NC(=O)CSc2nc3[nH]c(=O)cc(O)c3s2)cc1OC | 1.5
O=C(NCC(=O)N(Cc1ccccc1)C(C(=O)NC1CCCCC1)c1ccco1)c1ccco1 (stereo not drawn) | -24.5
O=C(NCc1cccc(C(F)(F)F)c1)C1CCN(c2ncccn2)CC1 | -38.3
Cc1cc(C(=O)NCCc2ccc(Cl)cc2)c2ccccc2n1 | 2.63
COc1ccc(CCNC(=O)c2cccc([N+](=O)[O-])c2)cc1OC | -4.6
O=C(/C=C/Nc1cccc(O)c1)c1ccccc1 | 2.04
CCN(CC)C(=O)c1csc(Nc2ccc(C)cc2)n1 | -34.8
COc1ccccc1NC(=S)N1CCN(Cc2ccc3c(c2)OCO3)CC1 | -1.31
CCCCn1c(N)c(N(CCOC)C(=O)CSCc2cccc(C)c2)c(=O)[nH]c1=O | 9.08
CCCCCc1nnc(NC(=O)C2CCCO2)s1 (stereo not drawn) | -1.64
O=C(Cn1cc2c(n1)CCCC2)Nc1cc(-c2cccc(Cl)c2)no1 | 8.59
C=C1c2cc(C)ccc2NC(=O)N1c1ccc(C)cc1 | 8.13
O=C(O)[C@@H]1CSC2c3ccccc3C(=O)N21 (stereo partly drawn) | 18.5
CC(C)C(C)NC(=O)COc1ccc([N+](=O)[O-])cc1Cl (stereo not drawn) | 2.38
CCCc1nnc(NC(=O)CCC(=O)N2CCN(Cc3ccc(C)cc3C)CC2)s1 | -43.7
COc1ccc(-c2cc3ccc(OCc4nn[nH]n4)cc3oc2=O)cc1 | -6.46
